Experimental data published in a compilation of properties of binary mixtures (doi:10.1021/ie501956x).
The densities may have been worked out from excess volumes.

Assay: xn = mol fraction of the nth substance listed
Settings: 101 kPa

CC(=O)[O-].CC[n+]1ccn(C)c1 + CCO
mass density [kg/m3]
Settings	x2 = 0	x2 = 0.1	x2 = 0.201	x2 = 0.2999	x2 = 0.4002	x2 = 0.5001	x2 = 0.6	x2 = 0.7	x2 = 0.8	x2 = 0.9
278.15 K	1111.6	1100.7	–	1072.9	1055.6	1034.6	1008.9	977.4	935.9	–
288.15 K	–	–	1081.4	1066.6	1049.1	1028	1002.1	970.4	–	873.4
298.15 K	1099	1088.1	1075.2	1060.3	–	–	995.4	963.5	921.5	865.7
308.15 K	1092.9	1082	1069	–	1036.2	1014.9	–	956.6	–	858.1
318.15 K	1086.9	–	–	–	–	1008.4	–	949.7	907.1	–
328.15 K	1080.8	1069.8	1056.7	1041.7	1023.6	1002	975.5	–	900	842.7
338.15 K	–	1063.8	1050.6	1035.5	1017.3	995.6	968.9	936.1	–	834.9

CCO + CC(=O)[O-].CC[n+]1ccn(C)c1
x1 = 1
Settings	mass density [kg/m3]
278.15 K	802.1
288.15 K	793.7
298.15 K	785.1
308.15 K	776.4
328.15 K	758.6
